The whole screen tested about 150,000 compounds, of which about 540 (0.36%) showed an effect of 50% or more. The list shows a part of the results.
What follows are compounds tested on Plasmodium falciparum (assay: Primary screen in NF54 nanoGlo assay, in single point, at 2uM, 72h; a lower Z score goes with more inhibition). Details: timepoint 72 hour.
Assay type: functional, Erythrocyte

SMILES | % Inhibition | Z score
COc1ccccc1OCC(=O)N(Cc1ccccn1)c1nc2c(OC)ccc(C)c2s1 | -1% | 0.24
CS(=O)(=O)c1cccc(OCCN2CCCc3c(C(N)=O)cccc32)c1 | -10% | 1.04
COC(=O)c1cc(N(C)C)nc(C)c1C(=O)OC | -9% | 1.87
CCN(CC)c1ccc2c(c1)CCCN2 | 1% | -0.09
Cc1nc2nc(-c3ccc(C(C)(C)C)cc3)nn2c(C)c1CC(=O)N1CCCCCC1 | -4% | 0.65
CCCn1ncnc1[C@H](C)Nc1cc(-c2ccccc2F)nc2ccnn12 | -16% | 2.45
CC(C)(C)CCN1CC2(C1)CN(C(=O)Nc1ccccc1)C[C@@H]1COCCN12 | 35% | -3.96
Cc1ccc(C(=O)NC[C@](C)(O)C(F)(F)F)c(=O)[nH]1 | -9% | 1.48
O=C(c1ccc(F)c(F)c1)N1C2CCC1CC(n1nccn1)C2 (stereo not drawn) | -8% | 1.51
CN(C)C(=O)N1CCC(CNC(=O)CC(C)(C)C)CC1 | -3% | 0.36
Cc1nnc(Cn2nnc(Cc3ccc(Cl)c(Cl)c3)n2)o1 | -3% | 0.38
CC1CCN(C(=O)C(=O)NC2CC2)C2CCCCC12 (stereo not drawn) | -9% | 1.47
Brc1ccc(CN2CCC(CC3CC3)(c3noc(C4CCOCC4)n3)CC2)o1 | -12% | 1.63
Cc1ccc(CN(C)C(=O)[C@H]2CCN(C3CCCCC3)C2)o1 | 1% | -0.2
Cc1nn(C)c(C)c1CCC(=O)N1CCN(C2Cc3ccccc3C2)CC1 | -20% | 2.59
CCc1nc(CN2CCC[C@H]2c2cc(OC)ccc2OC)n[nH]1 | -10% | 1.08
CC1CC(C(=O)O)CN(C(=O)Nc2nnc(-c3c(F)cccc3F)s2)C1 (stereo not drawn) | -12% | 1.08
COC(=O)c1ccc([C@@H]2C3=C(O)N(C(C)=O)CC3=Nc3cccc4[nH]cc2c34)cc1 | 8% | -1.25
C[C@@H](COc1ccccc1)NCCc1nc(C2CC2)no1 | -6% | 0.96
CC1(NC(=O)Nc2cnns2)CN(C(=O)OC(C)(C)C)C1 | -14% | 2.07
CCN1C(=O)Cc2cc(NC(=O)N3CCNC3=O)ccc21 | -9% | 1.64
Cc1ccc(-c2cc(C(=O)Nc3ccc(S(=O)(=O)N4CCCC[C@@H]4C)cc3)no2)cc1F | -9% | 1.74
Cn1cc(CCNC(=O)N2CCS(=O)(=O)CC2)c2ccc(Cl)cc21 | -9% | 1.18
CCCc1n[nH]cc1C(=O)N(C)Cc1ccoc1 | -14% | 1.33
CN(C)c1ccc(C(N)=NOCc2csc(C3CCCCC3)n2)cc1 | 2% | -0.23
Cc1nc(NS(=O)(=O)[C@H]2CCCOC2)sc1C | 1% | -0.09
CCNS(=O)(=O)[C@H]1CCN(C(=O)c2cnc(-c3ncccn3)s2)C1 | 7% | -1.22

SMILES | % Inhibition | Z score
Cn1ncnc1NC(=O)NCc1cccnc1N1CCOCC1 | -7% | 0.91
CC[C@H](NCc1cn(-c2ccccc2F)nc1-c1cc(C)sc1C)c1ccncc1 | -5% | 0.76
CCOC(=O)C1CCCN(C(=O)c2cnc(-c3cccc(C)c3)nc2N2CCCCC2C)C1 (stereo not drawn) | 4% | -0.48
Cc1ncc2ncccc2c1Br | -4% | 0.8
Cc1cnn(Cc2cccc(F)c2)c1NC(=O)C(C)N1C[C@@H](C)O[C@@H](C)C1 (stereo partly drawn) | -7% | 0.9
Cc1nc(N)nc(C)c1CC(=O)N1CCN(c2ccc3[nH]ncc3c2)C(=O)C1 | 0% | -0.06
CN1CCN(C(=O)c2cccc(S(C)(=O)=O)c2)c2ccccc2C1 | 0% | 0.07
Cc1nn(-c2ccccc2)c(Oc2ccccc2F)c1CCC(=O)NCc1ccccc1 | -16% | 1.99
COc1ccc(CN2CCn3nc(C(=O)NCc4ccccn4)cc3C2=O)cc1 | 0% | -0.04
COc1ccccc1C(=O)Nc1ccc2nc(NC(=O)c3ccccc3OC)sc2c1 | -28% | 3.24
CCN(c1ccc2ccccc2c1)S(=O)(=O)c1ccc(C(=O)O)c(F)c1 | 5% | -0.72
CCCC1CCc2ccccc2N1CC(=O)NCC1CCOC1 (stereo not drawn) | -8% | 1.61
CC(C)N(C(=O)[C@H]1CCS(=O)(=O)C1)c1ccc(F)cc1Cl | -1% | 0.17
Cn1ccc(C(=O)N[C@](C)(C#N)C2CCCCC2)n1 | -3% | 0.37
CC(=O)N[C@H](CC1CCC1)C(=O)N1CCN(Cc2cn[nH]c2)CC1 | -3% | 0.35
CCc1nsc(N2CCCCCC2)n1 | -9% | 0.89
Cc1cc(N2CCn3nc(CN4CCc5ccc(F)cc5C4)cc3C2)nc(N)n1 | -3% | 0.48
Cc1noc(C)c1S(=O)(=O)NCC1(c2ccc([C@H](C)O)s2)CCCC1 | 9% | -1.29
Cc1noc(C)c1C(=O)Oc1ccc(O[C@H]2CCCCNC2=O)cc1 | 2% | -0.4
O=C(NCC1CCCCC1)C1CCN(c2cnc(N3CCCCCC3)nc2)CC1 | 4% | -0.52
C[C@H]1CCCN1C(=O)c1cc(-c2cnc(N(C)C)nc2)nc2ccccc12 | -10% | 1.38
O=C(Nc1ccc2c(c1)OCO2)c1ccc2[nH]cnc2c1 | -2% | 0.37
COc1cc2c(cc1CNC1CCN(Cc3cccs3)CC1)OCO2 | -8% | 1.26
C=CCN(CCO)C(=O)Nc1ccc(N2CCCC2)c(C)c1 | -13% | 1.33
COC(=O)N1CCC(CNC(=O)NC2CCOCC2)CC1 | 8% | -1.09
O=C(Nc1ccc2c(c1)OCCO2)c1ccc(CN2C(=O)CNC2=O)cc1 | -15% | 2.09
COc1ccc(-c2c(C)nn3c2NC(=O)CCC3=O)cc1S(=O)(=O)Nc1ccccc1C | -2% | 0.19
